Whole data set: some 33,000 sequences, median “E-score (-0.5 to 0.5)” near -0.012, cut for the highest 2% near 0.29. The list shows a part of the results.

The target of the experiment is T1, Ybr033w (UniProt P38073).
T1 sequence: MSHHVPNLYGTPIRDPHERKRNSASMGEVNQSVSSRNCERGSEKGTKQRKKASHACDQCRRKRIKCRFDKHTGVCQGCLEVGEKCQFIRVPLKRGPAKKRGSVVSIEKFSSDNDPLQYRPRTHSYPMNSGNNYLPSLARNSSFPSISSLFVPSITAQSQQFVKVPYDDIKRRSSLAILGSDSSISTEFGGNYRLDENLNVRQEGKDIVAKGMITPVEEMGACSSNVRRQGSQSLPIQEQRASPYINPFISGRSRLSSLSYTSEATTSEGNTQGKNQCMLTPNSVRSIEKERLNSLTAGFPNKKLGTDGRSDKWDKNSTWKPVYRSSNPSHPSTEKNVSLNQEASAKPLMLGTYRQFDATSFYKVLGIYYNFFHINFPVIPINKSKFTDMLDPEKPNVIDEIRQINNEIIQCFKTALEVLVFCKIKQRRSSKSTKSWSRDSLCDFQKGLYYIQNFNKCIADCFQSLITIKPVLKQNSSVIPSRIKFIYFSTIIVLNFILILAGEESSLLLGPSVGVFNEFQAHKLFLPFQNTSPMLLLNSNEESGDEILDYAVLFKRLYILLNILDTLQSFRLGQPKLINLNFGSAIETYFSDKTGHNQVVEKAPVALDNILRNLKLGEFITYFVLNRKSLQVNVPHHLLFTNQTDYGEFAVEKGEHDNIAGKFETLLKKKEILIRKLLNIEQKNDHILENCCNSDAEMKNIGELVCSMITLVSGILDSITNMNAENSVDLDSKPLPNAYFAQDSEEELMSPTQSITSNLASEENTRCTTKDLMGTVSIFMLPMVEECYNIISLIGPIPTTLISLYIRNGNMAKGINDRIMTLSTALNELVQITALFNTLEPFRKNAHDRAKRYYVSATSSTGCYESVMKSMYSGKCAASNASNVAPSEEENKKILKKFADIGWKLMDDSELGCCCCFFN
The experiment can be described thus: PBM E-score (8-mer binding enrichment) (E-score (-0.5 to 0.5)); higher = stronger / more preferred TF binding; most listed sequences are background and not binding sites. The note with it: protein concentration: 200 nM; construct: GST-full length. The method, boiled down:
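GST-tagged yeast TFs (full-length or DNA-binding domain) were made by PURExpress in vitro transcription/translation and applied at about 100-200 nM to universal all-10-mer Agilent arrays. The arrays were made double-stranded by primer extension, on fresh or once-stripped slides. Bound protein was detected with fluorescent anti-GST, and scans were normalised with masliner. Each ungapped eight-base word, pooled with its reverse complement, received an E-score (modified Wilcoxon-Mann-Whitney statistic) from the Universal PBM Analysis Suite.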
On to AAGGAGGT, for which the “PBM E-score” value is -0.256. Turning to CTCCTCGC, the “PBM E-score” value is -0.257.

Take ATATGCGG: the “PBM E-score” value is -0.0555. As for AGCCGCTC, the figure is -0.0937. Take ACGGAGTG: the “PBM E-score” value was -0.0703. Regarding AGCGCCAT, the “PBM E-score” value was -0.223. To CAAGTACC belongs -0.111. As for AGGTCGGC, the “PBM E-score” value is -0.115. To AACTCTAG belongs -0.00073; to AGATCCCT, -0.163. To TATGTGGA belongs 0.195; to ATGACCGG, -0.357. To GATTCTCC belongs 0.155; to AGTATTTC, 0.34; to CCCCTGAC, -0.14. On to CCCTTCAA, for which the “PBM E-score” value is -0.159.

With AAACTCGT, the “PBM E-score” value is 0.185. As for AAATCGGT, the figure is -0.0416; as for TAGGAGAA, 0.0551; as for ACTCGAGC, -0.0991.

For CAGTTAGC, the “PBM E-score” value was -0.0937. To AACGATCA belongs 0.195. Consider AAACTGAG, for which the “PBM E-score” value is -0.018. To GTGGCCGA belongs -0.174; to AGCAGGAC, -0.0888. For GTGGATTA, the “PBM E-score” value stood at 0.164. As for CACTCAGA, the “PBM E-score” value was -0.0316.

In the case of AAGGGGAA, the “PBM E-score” value was -0.233.

For ATAAGCGG, the “PBM E-score” value was -0.0643. To AATCTGGG belongs 0.00147. On to GCACCCAC, for which the “PBM E-score” value was -0.0839. To AACAGACT belongs 0.0277; to AGCTAGGA, 0.0422; to ACTAGGAT, 0.0472. As to CCCGTACC, the “PBM E-score” value is -0.111.

As for AGTAGAAG, the “PBM E-score” value came out at 0.0782. On to AAGACAGT, for which the “PBM E-score” value came to 0.0667.

ACAGGGGC: the “PBM E-score” value was -0.265.

For CCCCGAAC, the “PBM E-score” value is -0.183.

CAGTGGTA: the “PBM E-score” value is -0.0548. To CAGAGCGA belongs 0.105. As for GTGGTTTA, the figure is 0.034; as for TTATTCAA, 0.253; as for AGGGGCGA, -0.321. Take AACCCTCG: the “PBM E-score” value is -0.175. As to GCGCGCCA, the “PBM E-score” value came to 0.0819. As for ACATCTAA, the figure is 0.0234. As to CCTCGCAA, the “PBM E-score” value was -0.14. Consider AGGGTCCA, for which the “PBM E-score” value was -0.217. For the sequence ATGATAGG, the “PBM E-score” value is -0.0354. As to AGTCAAAT, the “PBM E-score” value turned out to be 0.188. Take GCATACGC: the “PBM E-score” value is -0.0482. As for AGCAGTAA, the “PBM E-score” value came out at 0.0321.

On to CGCTTCAC, for which the “PBM E-score” value is -0.0967.

As to GGGGAACA, the “PBM E-score” value was 0.00453.

In the case of ATACCCGA, the “PBM E-score” value worked out at 0.0226. ACTCTTGC: the “PBM E-score” value is -0.0574. As to AGAGTAGG, the “PBM E-score” value turned out to be 0.0322. To ATCTGAGG belongs 0.0161; to GAATTGTC, -0.0273. As for CGACCCAA, the figure is -0.107; as for ACGTTCTC, 0.142.

Take AGCAGAGG: the “PBM E-score” value is -0.268.

On to CTCCCGCC, for which the “PBM E-score” value is -0.191. For the sequence TCCAGAAA, the “PBM E-score” value stood at 0.171. As for CAGTTACG, the figure is -0.2.

As to CTAAGTGA, the “PBM E-score” value was 0.17.

Take ATGCTATC: the “PBM E-score” value came to 0.0225. On to ACTGTGAA, for which the “PBM E-score” value came out at 0.0984. To ACTCGATC belongs -0.00471. GGTGAGAA: the “PBM E-score” value turned out to be 0.0936. To CACTTGCA belongs -0.0412; to CAAGGCGA, -0.246. As for AGGAAACG, the figure is 0.0312; as for TGAGGCAA, -0.00163; as for CCCGTAAC, -0.094.

Turning to ACTCTATG, the “PBM E-score” value was -0.106.

For ACGGTCAG, the “PBM E-score” value was -0.252. Turning to CTCCGGAG, the “PBM E-score” value came to 0.00475. To GACTTAGA belongs -0.058; to ACATTGAG, 0.0191; to CAACAAAA, 0.139.

As for TCCGCGGA, the “PBM E-score” value was -0.037. To CACCCTTC belongs -0.192; to TTACATAA, 0.271. To CACAACTC belongs 0.125. As to ATGCATCA, the “PBM E-score” value came out at 0.263. Turning to AAACGCCC, the “PBM E-score” value was -0.0301. In the case of GCATCTCA, the “PBM E-score” value was 0.0768. To CAAACAAG belongs 0.0729; to ATACAAGG, 0.11. Turning to CTTTATCA, the “PBM E-score” value was determined as 0.198. Turning to GCAGCGCA, the “PBM E-score” value was -0.171. As for ACCGGCAA, the “PBM E-score” value is -0.207.

Values taken from the supplement of paper PMC3334620.
